Assay results as given in patent US10633423B2, “IL-6-binding polypeptide complex” (AFFIBODY AB, priority 2014, dated 2020).

B1: Z06814-ABD: Z06814 (SEQ ID NO:1512) fused to ABD variant PP013 (SEQ ID NO:1554) (protein)
chain: VDAKYAKEEQRAWREIHLLPNLTIEQMAAFIWKLLDDPSQSSELLSEAKKLNDSQAPKLAEAKEAANAELDSYGVSDFYKRLIDKAKTVEGVEALKDAILAALP
modifications: Engineered IL-6 binding polypeptide; Engineered albumin binding polypeptide
B2: Z06789-ABD: Z06789 (SEQ ID NO:1505) fused to ABD variant PP013 (SEQ ID NO:1554) (protein)
chain: VDAKYAKEERQAWWEIHSLPNLTVDQMAAFIVKLMDDPSQSSELLSEAKKLNDSQAPKLAEAKEAANAELDSYGVSDFYKRLIDKAKTVEGVEALKDAILAALP
modifications: Engineered IL-6 binding polypeptide; Engineered albumin binding polypeptide
B3: Z06799-ABD: Z06799 (SEQ ID NO:1508) fused to ABD variant PP013 (SEQ ID NO:1554) (protein)
chain: VDAKYAKEEQRAWTEIHVLPNLTVQQMAAFITKLFDDPSQSSELLSEAKKLNDSQAPKLAEAKEAANAELDSYGVSDFYKRLIDKAKTVEGVEALKDAILAALP
modifications: Engineered IL-6 binding polypeptide; Engineered albumin binding polypeptide
B4: Z06809-ABD: Z06809 (SEQ ID NO:1511) fused to ABD variant PP013 (SEQ ID NO:1554) (protein)
chain: VDAKYAKEERDAWREIHALPNLTVDQLVAFITKLFDDPSQSSELLSEAKKLNDSQAPKLAEAKEAANAELDSYGVSDFYKRLIDKAKTVEGVEALKDAILAALP
modifications: Engineered IL-6 binding polypeptide; Engineered albumin binding polypeptide
B5: Z06829-ABD: Z06829 (SEQ ID NO:1513) fused to ABD variant PP013 (SEQ ID NO:1554) (protein)
chain: VDAKYAKEEQRAWTEIHVLPNLTVSQMSAFISKLFDDPSQSSELLSEAKKLNDSQAPKLAEAKEAANAELDSYGVSDFYKRLIDKAKTVEGVEALKDAILAALP
modifications: Engineered IL-6 binding polypeptide; Engineered albumin binding polypeptide

How the values were obtained:
[1] = system: IL-6 dependent growth of TF-1 cells; assay: TF-1 cell neutralization assay, classical signaling (Example 2); format: cell-based, human; details: primary Z variants; 0.099 nM rhIL-6, 72 h; read-out: IC50 (M), blocking the IL-6 dependent growth of TF-1 cells
Procedure: A first assay, evaluating the classical signaling pathway, used the TF-1 cell line that proliferates in response to human IL-6, TNF and GM-CSF. TF-1 cells were cultured in RPMI1640 with L-glut (Lonza) supplemented with 10% FCS (Gibco), Pen-Strep (Lonza) and 2 ng/ml rhGM-CSF (R&D Systems). Prior to use, cells were washed twice in RPMI1640 in the absence of rhGM-CSF. Cells were then counted and dispensed into 96 well flat bottomed plates at a density of 4×10^4 cells per well. […] In addition, the ABD-fused variants were incubated with or without 9 μM rhHSA (Novozymes). The pre-mixtures of the Z variant polypeptides and hIL-6 were then transferred to wells containing TF-1 cells which were incubated for 72 h at 37° C. in a humidified 5% CO2 atmosphere. During the last four hours of incubation 10 μl of CCK-8 (Fluke, Sigma Aldrich) was added per well to determine the number of proliferating cells. The absorbance was measured at 450 nm (Abs450) using a microplate reader (Victor^3, Perkin Elmer). The data on cell growth was assessed by non-linear regression to a four-parameter dose-response curve, and the half maximal inhibitory concentration (1050) was determined using GraphPadPrism program. The inhibition of IL-6-dependent proliferation of TF-1 cells by the inhibitory molecules was as Abs450 minus control wells that contained cells but no hIL-6.

[2] = system: IL-6 triggered serum amyloid-A (SAA) protein release; assay: Serum Amyloid A (SAA) mouse model, hIL-6 challenge (Example 8); format: in vivo, Balb/c mice
Procedure: The IL-6 targeting Z variant Z06814 (SEQ ID NO:1512) and a control Z variant Z04726 (SEQ ID NO:1535) binding an irrelevant target, were cloned and produced in fusion with the ABD variant PP013 (SEQ ID NO:1554) as described in Example 2. Four groups of Balb/c mice (n=8) were injected subcutaneously (s.c.) with various doses (0, 0.025, 2.5 or 25 mg/kg body weight) of Z06814-ABD 9 h prior to intraperitoneal (i.p.) administration of hIL-6 at 5 μg/kg (R&D Systems). A fifth group of mice (n=8) received 25 mg/kg of Z04726-ABD. Two additional control groups of mice received PBS (n=4) and 25 mg/kg of Z06814-ABD (n=8), respectively, but no subsequent IL-6 injection. After 20 h, the blood was taken by cardiac puncture and serum was collected.
Serum was assessed for the content of murine SAA by ELISA (Tridelta) according to the manufacturer's instructions. In brief, diluted serum samples were added to SAA-precoated plates together with anti-SAA-HRP. The plates were incubated for 1 h and then washed four times. TMB substrate was added for 20 min and the reaction was stopped with stop solution. The absorbance was measured at 450 nm using a microplate reader (VICTOR^3, Perkin Elmer).

[3] = system: IL-6 trans-signaling in human umbilical vein endothelial cells (HUVECs); assay: HUVEC trans-signaling assay, MCP-1 readout; format: cell-based; details: hIL-6 0.5 nM + soluble hIL-6Rα […], in the presence of HSA, read-out: approximate IC50, inhibition of trans-signaling (MCP-1 secretion)
Procedure: To address the trans-signaling pathway, a second assay was used. Herein, human umbilical vein endothelial cells (HUVECs) were stimulated with hIL-6 and soluble hIL-6Rα and the readout was the production of monocyte chemoattractant protein-1 (MCP-1). HUVECs (Lonza) were grown in EGM-2 bullet kit media (Lonza) and passaged in culture no more than eight times. Cells were grown until 75% confluence before use. Cells were detached using trypsin/EDTA (Lonza), resuspended and washed once in fresh medium. Next, cells were counted and dispensed into 96 well flat bottom plates at a density of 2×10^4 cells per well. Cells were cultured overnight at 37° C. in a humidified 5% CO2 atmosphere. […] The pre-mixed solutions with the test molecules and hIL-6/hIL-6Rα were then transferred to wells containing HUVECs, which were incubated for 24 h at 37° C. in a humidified 5% CO2 atmosphere. Cell free supernatant was collected after the incubation period and human MCP-1 levels were determined by sandwich ELISA using the MCP-1 Duoset ELISA development system (R&D Systems).
Half area 96-well ELISA plates were coated with anti-MCP-1 capture antibody (R&D Systems) at a concentration of 1 μg/ml. Plates were incubated overnight at 4° C., washed twice in tap water and blocked for 1 h in PBSC. […] The absorbance was measured at 450 nm using a microplate reader (Victor^3, Perkin Elmer).

[4] = system: IL-6/TNF-dependent proliferation of TF-1 cells; assay: TF-1 cell assay, stimulated with both IL-6 and TNF (Example 11); format: cell-based, human; details: TF-1 cells simultaneously stimulated with IL-6 and TNF
Procedure: TF-1 cells were cultured in RPMI1640 with L-glut (Lonza) supplemented with 10% FCS (Gibco), Pen-Strep (Lonza) and 2 ng/ml rhGM-CSF (R&D Systems). Prior to use, the cells were washed twice in RPMI1640 in the absence of rhGM-CSF. Cells were then counted and dispensed into 96 well flat bottomed plates at a density of 4×10^4 cells per well. […] The samples were incubated in the presence of either 0.099 nM rhIL-6 (R&D Systems, cat. no. 206-IL/CF), 0.023 nM rhTNF (R&D Systems, cat. no. 210-TA) or a combination of both cytokines. The pre-mixtures were transferred to wells containing TF-1 cells which were incubated for 72 h at 37° C. in a humidified 5% CO2 atmosphere. During the last four hours of incubation, 10 μl of CCK-8 (Fluka, Sigma Aldrich) was added per well to determine the number of proliferating cells. The absorbance was measured at 450 nm (Abs450) using a microplate reader (VICTOR^3, Perkin Elmer). The data on cell growth was assessed by non-linear regression to a four-parameter dose-response curve, and the half maximal inhibitory concentration (IC50) was determined using GraphPad Prism program. The inhibition of IL-6/TNF-dependent proliferation of TF-1 cells by the inhibitory molecules was as Abs450 minus control wells that contained cells but no IL-6.

Row | Molecule | IC50 [1] [M] | SAA protein levels, dose dependence ([2]; 0.025, 2.5 or 25 mg/kg s.c. 9 h before hIL-6 5 μg/kg) | SAA protein levels at highest dose ([2]; 25 mg/kg body weight) | IC50 [3] [nM] | viability reached at the highest concentrations [4] [%]
1 | B1 | 8e-10 | significantly lower SAA protein levels were measured in a dose-dependent manner | as low as for animals given no hIL-6 injection | ~1 | 50
2 | B2 | ~1e-07 |  |  |  | 
3 | B3 | 2.4e-09 |  |  |  | 
4 | B4 | 1e-08 |  |  |  | 
5 | B5 | 1.5e-08 |  |  |  | 
